# Data: PMC6212790
# The other results are listed elsewhere or left out. At the low end of the ranking, values are background and their order means little.
# Target: T1, GST-Rok (full length) (UniProt O34857)
# T1 sequence: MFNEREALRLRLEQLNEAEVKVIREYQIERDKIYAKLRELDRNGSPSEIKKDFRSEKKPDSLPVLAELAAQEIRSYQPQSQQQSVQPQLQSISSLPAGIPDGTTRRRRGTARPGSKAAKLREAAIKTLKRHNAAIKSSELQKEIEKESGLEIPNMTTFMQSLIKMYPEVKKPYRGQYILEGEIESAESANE
# Experiment: protein binding microarray;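 also: rank score from −0.5 (least bound) to 0.5 (best bound)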
# Conditions: Rok is a gene silencer of Bacillus subtilis; high values mean tight binding; most listed sequences are background and not binding sites; double strand, one strand shown
row,Sequence,binding signal [E-score]
1,CGAGGCGA,-0.165
2,CCAGGGCA,-0.25
3,GTGAAACA,0.0624
4,TCTTGACA,0.0197
5,CAACTGTC,0.0826
6,TCACATCA,0.0834
7,TGATAACA,0.126
8,CGAATCCC,-0.125
9,AGCGGGAG,-0.244
10,CGGTCGGA,-0.301
11,GTTCTACA,0.265
12,GGGGCGAA,-0.227
13,GTCCTGCA,-0.2
14,CTAATAAG,0.0873
15,AAGATCCC,-0.0989
16,AAAACGCA,0.107
17,TGGGCTAA,0.0429
18,ATTAGGCC,-0.131
19,CGCTTGAC,-0.213
20,ATGATTGA,0.0352
21,GTAGGGCA,-0.119
22,CGTGCACC,-0.2
23,AGAGGTGA,-0.164
24,TCGGCAGA,-0.063

row,Sequence,binding signal [E-score]
1,ATCGACCC,0.0163
2,CATGAGCC,-0.15
3,CAGAGCCG,-0.316
4,CGGGAGCA,-0.316
5,CTATCATA,0.207
6,TCAATGGA,0.0724
7,AATCCTTG,-0.011
8,CTTCTCCC,-0.255
9,ATTGCGAA,0.169
10,ATACCGTG,0.212
11,CAGCGCCG,-0.31
12,AGTTAAAG,-0.00997
13,AGTTACAA,0.186
14,GTTAAACA,0.0864
15,AAAGCACA,-0.00894
16,ACAATTCA,0.0585
17,ACTCACTA,0.177
18,CAATAACC,0.0248
19,CCGATCGG,-0.294
20,CGAAGCGA,0.07
21,ACGATAGT,0.324
22,AATGGTTG,-0.109
23,TCCCTCCA,-0.329
24,ATATGTTC,0.184

row,Sequence,binding signal [E-score]
1,GAGGTGGC,-0.206
2,GCAAAGGA,-0.0739
3,AGTGTTTA,0.136
4,CCCGGTCA,-0.142
5,GAATATGA,0.0208
6,AGTAAGCG,0.0086
7,GTTCACGA,-0.081
8,GTTCCAAC,-0.185
9,CAGTGGAC,-0.176
10,CAAGCCAC,-0.291
11,GACCGGGC,-0.436
12,ATCGTCAA,0.079
13,AACGGATC,0.0282
14,CGTTCTGC,-0.129
15,CTCACCCA,0.0443
16,ATGGCGAG,-0.164
17,CCAGACCA,-0.192
18,AAGTAGAC,0.00429
19,AATACATG,0.108
20,GCCCAGAA,-0.165
21,CATCTCGG,-0.00592
22,CGCGTAAC,0.264
23,CAACGACG,-0.1
24,GGACCTAC,-0.0536

row,Sequence,binding signal [E-score]
1,CCTATACA,0.231
2,TACGCAGA,-0.0189
3,GGAATACC,0.124
4,ATGCATAA,0.28
5,CGTCACAC,-0.186
6,AAGATGGA,-0.177
7,GTTCTCCA,-0.00255
8,CAGACTCC,-0.148
9,CTGGTCAA,-0.0989
10,AGATTCTC,0.0838
11,CCCACTCA,-0.199
12,CAAACCGG,-0.00327
13,CTTGCAAA,-0.142
14,ACATTGTA,0.222
15,CGAGCACA,-0.0389
16,CTAAAGAA,0.108
17,CCCGAGCG,-0.397
18,CAAAATTC,-0.00555
19,CGAAACGC,-0.256
20,CAGCCTCG,-0.341
21,GCTCCACC,-0.225
22,CGCTACAC,-0.0954
